# The other results are listed elsewhere or left out. The energies were worked out here from pooled read counts, against the library average; single values are noisy.
# Target: T1, Pho4 (S. cerevisiae) (UniProt P07270)
# T1 sequence: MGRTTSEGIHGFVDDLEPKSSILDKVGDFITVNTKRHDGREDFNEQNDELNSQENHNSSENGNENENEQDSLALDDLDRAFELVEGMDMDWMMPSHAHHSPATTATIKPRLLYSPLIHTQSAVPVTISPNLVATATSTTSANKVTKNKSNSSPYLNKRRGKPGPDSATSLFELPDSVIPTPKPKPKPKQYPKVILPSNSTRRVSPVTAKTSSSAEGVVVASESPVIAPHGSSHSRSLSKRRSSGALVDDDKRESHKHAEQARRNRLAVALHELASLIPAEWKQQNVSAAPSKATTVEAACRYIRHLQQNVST
# Test: relative binding free energy (BET-seq); higher = weaker binding
# Conditions: reference: library average
row,Sequence,relative binding free energy
1,GGTGACACGTGGTGAC,0.14 kcal/mol
2,ATTCTCACGTGGTAGT,0.14 kcal/mol
3,CTGGTCACGTGCAGTT,0.08 kcal/mol
4,TTTGGCACGTGGGACT,-0.07 kcal/mol
5,TAGCTCACGTGTCGGG,0.15 kcal/mol
6,TAGGTCACGTGGGGCG,-0.07 kcal/mol
7,AGGGTCACGTGGCATT,0.03 kcal/mol
8,TCTGCCACGTGCGTGG,0.01 kcal/mol
9,TGTCGCACGTGCTGGT,-0.09 kcal/mol
10,CATGACACGTGTGTAT,0.13 kcal/mol
11,GTGTCCACGTGGCGTT,-0.01 kcal/mol
12,TTGATCACGTGTTGTC,0.24 kcal/mol
13,GATGGCACGTGTGTGG,0.03 kcal/mol
14,TGTATCACGTGCCGTT,0.2 kcal/mol
15,AAGGGCACGTGCTGCG,-0.27 kcal/mol
16,AAAGTCACGTGGTTTC,0.18 kcal/mol
17,AATGACACGTGCAGTG,0.15 kcal/mol
18,CGATTCACGTGGATAT,0.4 kcal/mol
19,GTTAGCACGTGGTTGG,-0.11 kcal/mol
20,TGGACCACGTGTAGGG,-0.11 kcal/mol
21,ATTTACACGTGGAGCT,0.23 kcal/mol
22,TGGCCCACGTGGGATG,-0.15 kcal/mol
23,TAGTGCACGTGCGTAT,-0.23 kcal/mol

row,Sequence,relative binding free energy
1,TGAGACACGTGGCATG,-0.03 kcal/mol
2,GTTTTCACGTGTGTTT,0.36 kcal/mol
3,TTTTGCACGTGAGAAG,0.27 kcal/mol
4,AATATCACGTGGGTAG,0.03 kcal/mol
5,ATTGTCACGTGAAGGG,0.16 kcal/mol
6,AGAGACACGTGGGATT,-0.01 kcal/mol
7,TGGTCCACGTGTGTGT,-0.06 kcal/mol
8,ATGTGCACGTGGCAGT,-0.12 kcal/mol
9,TTGGTCACGTGAACGG,0.29 kcal/mol
10,GGCGGCACGTGTTGAA,0.04 kcal/mol
11,AGGTTCACGTGCATTG,0.19 kcal/mol
12,GGAGTCACGTGGTTTT,0.14 kcal/mol
13,TCTGACACGTGTGCTT,0.2 kcal/mol
14,CTGTGCACGTGGAAGG,-0.05 kcal/mol
15,AGGGACACGTGCTCGG,0.01 kcal/mol
16,TGGTGCACGTGTCATA,-0.15 kcal/mol
17,TTGGGCACGTGGTTCT,-0.14 kcal/mol
18,GGGGGCACGTGAGGGC,0.12 kcal/mol
19,TGTTGCACGTGCGCTA,-0.12 kcal/mol
20,CTTGGCACGTGGGTCG,-0.2 kcal/mol
21,ATGACCACGTGGGGGA,-0.24 kcal/mol
22,GGCGGCACGTGGATGA,0.03 kcal/mol
23,ATTCACACGTGGGGGC,0.04 kcal/mol

row,Sequence,relative binding free energy
1,TGATTCACGTGGGCTA,0.26 kcal/mol
2,GTTTTCACGTGTAGGT,0.29 kcal/mol
3,ATTAGCACGTGAAGGT,0.06 kcal/mol
4,GTATGCACGTGGTTAT,0.04 kcal/mol
5,GGTATCACGTGATACG,0.32 kcal/mol
6,TGCTGCACGTGTGATG,-0.08 kcal/mol
7,TTGGTCACGTGAAGTG,0.4 kcal/mol
8,TTTGACACGTGGGTGT,-0.09 kcal/mol
9,TGTGGCACGTGTAAGA,0.04 kcal/mol
10,TTCTGCACGTGTAGTG,0 kcal/mol
11,TATATCACGTGTGGGA,0.14 kcal/mol
12,TTTAACACGTGGCGAG,-0.01 kcal/mol
13,TGTGACACGTGTCGTA,0.05 kcal/mol
14,GTAAGCACGTGGTTAC,0.01 kcal/mol
15,AGATTCACGTGGTTGC,0.25 kcal/mol
16,TTTTTCACGTGTTAAC,0.35 kcal/mol
17,TTCGGCACGTGTGAAG,0.13 kcal/mol
18,TAATGCACGTGGCAGT,-0.18 kcal/mol
19,TAGGACACGTGGCGGG,-0.04 kcal/mol
20,GGGGGCACGTGGGTAA,-0.16 kcal/mol
21,AGTGACACGTGAGGGT,0.19 kcal/mol
22,AAATTCACGTGGCTGA,0.37 kcal/mol
23,ATAGGCACGTGATGAG,0.01 kcal/mol

row,Sequence,relative binding free energy
1,TTTACCACGTGATGGT,0.15 kcal/mol
2,GCTATCACGTGAGGGT,0.38 kcal/mol
3,GTGCACACGTGATGTG,0.12 kcal/mol
4,TATTGCACGTGTACGT,0.06 kcal/mol
5,GTGTCCACGTGTGTGG,0.06 kcal/mol
6,TAACTCACGTGTAGGA,0.41 kcal/mol
7,TCTGCCACGTGGTATG,-0.11 kcal/mol
8,ACGTTCACGTGGTCGT,0.21 kcal/mol
9,GATGTCACGTGTGGAT,0.16 kcal/mol
10,CGTGGCACGTGATGGA,0.03 kcal/mol
11,TCGTGCACGTGGATTA,0.17 kcal/mol
12,ACGGACACGTGGTGTT,0.07 kcal/mol
13,CTTTACACGTGGGGGG,-0.14 kcal/mol
14,GTAGCCACGTGGGGGG,-0.25 kcal/mol
15,GTAAGCACGTGATGTA,0.02 kcal/mol
16,TTGTACACGTGGAGTC,-0.01 kcal/mol
17,GTCGGCACGTGGGCGG,-0.09 kcal/mol
18,AGGCTCACGTGTGATG,0.28 kcal/mol
19,GGTATCACGTGGGGAC,-0.03 kcal/mol
20,GGAGACACGTGGGACG,-0.07 kcal/mol
21,TAGAGCACGTGGATAG,-0.17 kcal/mol
22,ATTGACACGTGGTAAT,0.06 kcal/mol
23,GGATGCACGTGAGTTG,0.13 kcal/mol

row,Sequence,relative binding free energy
1,GGGGGCACGTGGGACG,-0.18 kcal/mol
2,GCTGCCACGTGGGGGA,-0.17 kcal/mol
3,GGATCCACGTGCGGGG,0 kcal/mol
4,TGTGTCACGTGAAAAA,0.31 kcal/mol
5,CTAGGCACGTGCAGGT,-0.15 kcal/mol
6,GGCGGCACGTGTTATG,-0.05 kcal/mol
7,GCGGGCACGTGGCGTT,-0.2 kcal/mol
8,TGGAGCACGTGAATAT,0.21 kcal/mol
9,CATAGCACGTGGGTGG,-0.11 kcal/mol
10,AGAGTCACGTGGAGCA,0.33 kcal/mol
11,ATATTCACGTGGGGGA,0.14 kcal/mol
12,ATGGTCACGTGTTTTC,0.34 kcal/mol
13,GTCGTCACGTGTTCGT,0.15 kcal/mol
14,GGGATCACGTGTGGCC,0.17 kcal/mol
15,TGGTACACGTGAAAGT,0.34 kcal/mol
16,AGGGACACGTGGCAGT,-0.13 kcal/mol
17,GTTTACACGTGTGCAG,0.02 kcal/mol
18,AGTTCCACGTGTTTGT,0.05 kcal/mol
19,TATGTCACGTGCATGG,-0.01 kcal/mol
20,TTGATCACGTGTGTGC,0.09 kcal/mol
21,GGAAGCACGTGGAGTG,-0.14 kcal/mol
22,TTAATCACGTGAGGGT,0.4 kcal/mol
23,GTGGGCACGTGGGCGA,-0.08 kcal/mol

# Source: the BET-seq Pho4 binding data (Le et al. 2018)
